Data on 90 compounds can be found in paper PMC4336329 (PLoS ONE, 2015).

The whole screen tested about 310,000 compounds, of which about 2,200 (0.71%) showed an effect of 50% or more. The effect is printed as a negative number. This is one part of the list.

For the experiment, the target named is human ether-à-go-go-related gene (hERG) potassium channel (human, UniProt Q12809). Kind of experiment: primary screen, population patch clamp on CHO cells stably expressing hERG.
Chain of human ether-à-go-go-related gene (hERG) potassium channel (Q12809 whole entry, looked up): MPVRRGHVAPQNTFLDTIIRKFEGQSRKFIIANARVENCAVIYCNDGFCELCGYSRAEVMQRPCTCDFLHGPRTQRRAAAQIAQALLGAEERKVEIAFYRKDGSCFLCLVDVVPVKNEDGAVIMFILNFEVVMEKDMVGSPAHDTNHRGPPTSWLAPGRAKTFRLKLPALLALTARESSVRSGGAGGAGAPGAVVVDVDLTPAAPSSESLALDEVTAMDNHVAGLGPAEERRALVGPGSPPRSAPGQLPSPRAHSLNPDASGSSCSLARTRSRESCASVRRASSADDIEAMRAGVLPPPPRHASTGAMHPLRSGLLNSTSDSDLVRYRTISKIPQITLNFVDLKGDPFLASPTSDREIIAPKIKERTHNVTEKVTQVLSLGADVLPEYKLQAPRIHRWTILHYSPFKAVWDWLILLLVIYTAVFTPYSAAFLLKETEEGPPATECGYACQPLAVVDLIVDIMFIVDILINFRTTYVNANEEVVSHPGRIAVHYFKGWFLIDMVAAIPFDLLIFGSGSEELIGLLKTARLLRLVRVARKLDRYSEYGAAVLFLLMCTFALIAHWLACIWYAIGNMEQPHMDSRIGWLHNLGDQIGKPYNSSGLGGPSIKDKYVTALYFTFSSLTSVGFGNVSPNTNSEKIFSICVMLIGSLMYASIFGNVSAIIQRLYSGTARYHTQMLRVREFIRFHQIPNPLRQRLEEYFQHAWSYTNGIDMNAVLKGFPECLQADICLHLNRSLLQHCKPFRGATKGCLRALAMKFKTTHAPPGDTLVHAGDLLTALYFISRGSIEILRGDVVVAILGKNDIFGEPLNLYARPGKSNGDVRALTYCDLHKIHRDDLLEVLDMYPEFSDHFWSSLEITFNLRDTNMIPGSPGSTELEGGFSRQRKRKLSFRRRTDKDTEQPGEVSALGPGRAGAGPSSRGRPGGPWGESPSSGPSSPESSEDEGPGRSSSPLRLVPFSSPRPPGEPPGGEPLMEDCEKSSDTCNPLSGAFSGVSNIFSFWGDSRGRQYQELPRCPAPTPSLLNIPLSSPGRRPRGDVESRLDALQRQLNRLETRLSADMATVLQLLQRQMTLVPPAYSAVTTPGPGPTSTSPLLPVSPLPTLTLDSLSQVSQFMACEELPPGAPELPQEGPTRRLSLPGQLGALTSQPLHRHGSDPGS
On to `CCOC(=O)CSc1nnc(CNC(=O)c2ccc(S(=O)(=O)N3CCCC3)cc2)n1C`, for which the “hERG current change (%, negative = inhibition) at 1uM” value came to 10.8%. On to `CCCC(=O)NCCCc1nc2ccccc2n1C`, for which the “hERG current change (%, negative = inhibition) at 1uM” value was 9.05%. With `COC(=O)N=Nc1c(O)[nH]c2ccc(Br)cc12` the figure was 6.7%. Then `COC(=O)c1cc2ccsc2n1Cc1nc(-c2ccc(Cl)cc2)oc1C`, with 10.5%.

Take `NC(=O)COC(=O)C1CSC2(c3ccc(F)cc3)CCC(=O)N12` (stereo not drawn): the “hERG current change (%, negative = inhibition) at 1uM” value is 18.4%. Then `O=C(NCCc1c[nH]c2ccccc12)c1cc2ccccc2oc1=O`, with 8.75%; and `Clc1ccc(OCc2nn3c(C4CCCCC4)nnc3s2)cc1`, with 11.5%; and `O=[N+]([O-])c1cccc(-c2csc(N/N=C/c3cccc(O)c3)n2)c1`, with 2.64%. With `Cc1c(C)c2ccc(OCC(=O)c3ccccc3)cc2oc1=O` the figure was 23.3%; with `CC(=O)Nc1ccc(-c2ccc(NC(C)=O)c(O)c2)cc1O`, 13%; with `COc1ccc(CN2CCNC(=O)C2CC(=O)NC2CCCCCC2)c(F)c1` (stereo not drawn), 3.97%. With `O=C(COC(=O)c1ccc(CNS(=O)(=O)c2ccc(F)c(Cl)c2)cc1)NC1CCCCCCC1` the figure was 14%; with `CCS(=O)(=O)N1CCC(C(=O)OCC(=O)c2ccc(Br)cc2)CC1`, 7.1%. For the compound `CC(NC(=O)C1CCC1)c1ccc2c(c1)OCO2` (stereo not drawn), the “hERG current change (%, negative = inhibition) at 1uM” value is listed as -3.43%. With `O=C(COc1ccccc1)Nc1ccccc1C(=O)NCc1ccco1` the figure was 6.35%. With `COC(=O)c1ccc(CSc2nc3ccccc3s2)o1` the figure was 2.75%; with `Cc1cc(C)nc(SCC(=O)Nc2ccc(N3CCOCC3)c(Cl)c2)n1`, 5.02%; with `COc1ccc(/C=C/C(=O)Nc2ccccc2C)cc1S(=O)(=O)N1CCOCC1`, 5.61%. With `Cc1ccc(NC(=O)CSc2nnc(CNC(=O)c3ccccc3F)o2)cc1` the figure was 8.09%. `CC(=O)Nc1ccc(S(=O)(=O)N(C)CC(=O)OCC(=O)N2CC(C)OC(C)C2)cc1` (stereo not drawn): the “hERG current change (%, negative = inhibition) at 1uM” value stood at 10.7%.

Consider `CCOC(=O)C[N+](C)(C)CCOC1CC2CCC1(C)C2(C)C.[Cl-]` (stereo not drawn), for which the “hERG current change (%, negative = inhibition) at 1uM” value is given as 12.2%. As for `S=C(Nc1ccc(Cl)cc1)N(CCCN1CCOCC1)Cc1ccco1`, the “hERG current change (%, negative = inhibition) at 1uM” value is listed as -8.98%. With `Cc1ccc(SCc2[nH]nc3c2C(c2cccnc2)C(C#N)=C(N)O3)cc1` (stereo not drawn) the figure was 7.49%. As for `COc1ccc(NC(=O)CCC(=O)Nc2nnc(C3CCCCC3)s2)cc1`, the “hERG current change (%, negative = inhibition) at 1uM” value is 14.5%. For the compound `CCOc1ccccc1NC(=O)N1C2CCCC1CC(NC(=O)C1CC1)C2` (stereo not drawn), the “hERG current change (%, negative = inhibition) at 1uM” value was 12.7%. `COCCCNC(=O)c1c[nH]c2ccc(S(=O)(=O)N3CCC(C)CC3)cc2c1=O`: the “hERG current change (%, negative = inhibition) at 1uM” value is 3.78%. On to `CNS(=O)(=O)c1cn(CC(=O)NCc2ccccc2OC)cc1S(=O)(=O)NC`, for which the “hERG current change (%, negative = inhibition) at 1uM” value amounted to 4.3%. As for `CN(Cc1ccc(F)cc1)C(=O)c1ccc(NC(=O)CC2SC(N3CCCC3)=NC2=O)cc1` (stereo not drawn), the “hERG current change (%, negative = inhibition) at 1uM” value came out at 8.82%.

As to `Cc1ccc2nc(NC(=O)Cn3nc(C)c([N+](=O)[O-])c3C)sc2c1`, the “hERG current change (%, negative = inhibition) at 1uM” value is 9.4%.

As to `O=C(Nc1nc(-c2cccnc2)cs1)c1ccccc1F`, the “hERG current change (%, negative = inhibition) at 1uM” value worked out at 6.89%. Then `O=C1CCCN1c1ccc(S(=O)(=O)N2CCN(c3ccccc3)CC2)cc1`, with 16.8%. With `CNc1ccc(/C=C(\CCC(=O)O)c2nc3ccccc3s2)cc1[N+](=O)[O-]` the figure was 2.57%; with `O=C(Nc1ccc(S(=O)(=O)N2CCCC2)cc1)c1ccc(CN2CCOCC2)cc1`, 0.61%. Then `CCCCc1nc2sc3c(=O)[nH]cnc3c2c2c1CCCC2`, with 8.77%; and `O=C(Nc1cccc(-c2cc3ccccc3oc2=O)c1)c1ccc(Br)o1`, with 8.28%; and `Cc1cccc(N(CC(=O)O)CC(=O)O)c1`, with -2.61%. `Cc1sc(NC(=O)/C=C/c2ccc3c(c2)OCO3)nc1-c1ccccc1`: the “hERG current change (%, negative = inhibition) at 1uM” value worked out at 8.16%. For the compound `C/C(=N\NC(=O)c1ccc2c(c1)OCO2)c1ccc(NS(C)(=O)=O)cc1`, the “hERG current change (%, negative = inhibition) at 1uM” value turned out to be 11.6%. With `O=C(CCNC(=O)c1ccc([N+](=O)[O-])cc1)Nc1ccc(F)cc1F` the figure was -4.9%.

Turning to `Cc1cc2ccccc2n1CCNC(=O)C(C)(C)C`, the “hERG current change (%, negative = inhibition) at 1uM” value is 29%. With `O=C(NCC1CCCO1)C1CC(=O)N(c2ccc(Cl)cc2)C1` (stereo not drawn) the figure was -1.78%.

For the compound `Cc1nnsc1C(=O)Nc1cc(Cl)ccc1Cl`, the “hERG current change (%, negative = inhibition) at 1uM” value is recorded as 13.9%. With `CCOC1Cc2ccccc2N(C(N)=O)c2ccccc21` (stereo not drawn) the figure was 14.5%. With `Cc1ccc(NC(=O)CN(C)C(=O)c2cccc(S(=O)(=O)NCc3cccs3)c2)cc1` the figure was -4.97%; with `Cc1ccc2nc(C)c(C(=O)NN=C3CCN(C)CC3)n2c1`, 16.2%; with `COc1ccc(-c2nc3ccccc3n2Cc2ccc(C)cc2)cc1`, 11.2%. With `Cc1ccc2[nH]c3c(=O)n(Cc4ccccn4)cnc3c2c1` the figure was 7.99%; with `CCN(CC)C(=S)SC1CCCCN(C(=O)c2ccccc2)C1=O` (stereo not drawn), 10.3%. As for `CN1CCN(CC(O)COCc2ccc3c(c2)OCO3)CC1.Cl` (stereo not drawn), the “hERG current change (%, negative = inhibition) at 1uM” value turned out to be 4.46%. For the compound `CC1CCN(C(=O)CN(c2ccc(Cl)c(C(F)(F)F)c2)S(C)(=O)=O)CC1`, the “hERG current change (%, negative = inhibition) at 1uM” value stood at 2.79%. With `CN(CC(=O)Nc1ccc(Cl)c(C(F)(F)F)c1)C(=O)C1CCC1` the figure was 4.62%; with `Cc1ccc(CCNC(=O)C2CCN(S(=O)(=O)c3c(C)nn(C)c3C)CC2)cc1`, 7.64%; with `Cc1cc(-c2ccccc2)cc(C)[n+]1Cc1ccccc1.[O-][Cl+3]([O-])([O-])[O-]`, 6.49%. With `CC(=O)n1c(C=Nc2ccccc2)c(O)c2ccccc21` the figure was 10.8%; with `COC(=O)CCCC1=CC2=C(c3ccccc3)C(=O)C(C)(OC(=O)C3CCCC3)C(=O)C2=CN1CCCCO` (stereo not drawn), 19.7%; with `C1CCN(Cc2nnnn2C2CCCC2)CC1`, 11.2%. With `NS(=O)(=O)c1ccc(NCc2ccccc2OCc2ccccc2F)cc1` the figure was 5.57%.

With `c1ccc(-c2nnc3ccc(N4CCCC4)nn23)cc1`, the “hERG current change (%, negative = inhibition) at 1uM” value is 12.2%. Then `CN(C)c1cc(C(F)(F)F)nc(-c2ccccn2)n1`, with 6.17%. With `CC(C)CC(=O)NC(=S)Nc1ccc(N2CCOCC2)c(Cl)c1` the figure was 10.7%; with `Cc1ccc(S(=O)(=O)N2CCCCC2)cc1NC(=O)Cn1c(=O)cnc2ccccc21`, 5.94%. For `Nc1cc2ccccc2oc1=O`, the “hERG current change (%, negative = inhibition) at 1uM” value is 11.2%. With `CCOCCCNC(=O)CN1C(=O)COc2ccc(S(=O)(=O)N3CCCCCC3)cc21` the figure was 16.9%; with `Cc1ccsc1C1C(C#N)=C(N)OC2=C1C(=O)CC(C)C2` (stereo not drawn), -6.03%. Consider `NC(=O)C1CCN(CCC(=O)Nc2ccc3c(c2)CCC3)CC1`, for which the “hERG current change (%, negative = inhibition) at 1uM” value was -7.54%.

For the compound `Cc1cc(S(=O)(=O)N2CCCC2)ccc1OCC(=O)NCc1ccccc1`, the “hERG current change (%, negative = inhibition) at 1uM” value stood at 9.71%.

In the case of `Cc1ccc2c(c1)oc(=O)n2CC(=O)c1ccccc1`, the “hERG current change (%, negative = inhibition) at 1uM” value is 8.61%. With `Cc1ccc(NC(=O)NCc2ccc3c(c2)OCO3)cc1C` the figure was 6.54%; with `COc1ccccc1OCCCC(=O)Nc1ccc(N2CCOCC2)cc1`, 8.48%; with `CCOC(=O)c1c(C)c(C(=O)NCCc2ccccc2)c(C)n1C`, 3.8%. As to `O=C(/C=C/c1ccc(OC(F)F)cc1)OCC(=O)N1CCc2ccccc21`, the “hERG current change (%, negative = inhibition) at 1uM” value turned out to be 16.1%. With `CC(C)/C=N/Nc1nc(-c2ccc(Br)cc2)cs1`, the “hERG current change (%, negative = inhibition) at 1uM” value is on record as 1.05%. Then `CC1(c2ccc3ccccc3c2)NC(=O)N(CC(=O)NCC(C)(C)N2CCOCC2)C1=O` (stereo not drawn), with 5.4%; and `CC(=O)N1CCOc2ccc(S(=O)(=O)NCC3CCC(C(=O)Nc4ncccc4C)CC3)cc21` (stereo not drawn), with 4.24%. In the case of `O=C(CCl)Nc1ccc(Oc2cnc3ccccc3n2)cc1`, the “hERG current change (%, negative = inhibition) at 1uM” value was 8.33%. Then `COc1ccc(C2C(C(=O)OC(C)C)=C(C)N=c3s/c(=C\c4cccs4)c(=O)n32)cc1` (stereo not drawn), with 9.39%; and `COc1ccc(-c2nnc(-c3cccnc3)o2)cc1`, with 9.22%; and `O=C(COC(=O)C1CC1)Nc1ccccc1Sc1ccccc1`, with 5.86%. Then `N#CC(=NCc1cccnc1)C1=C(O)c2ccccc2C1=O`, with 10.2%; and `O=C(NNS(=O)(=O)c1ccc2ccccc2c1)C1CCN(Cc2ccccc2)CC1`, with 8.72%; and `COc1ccc(NS(=O)(=O)NC(=O)c2cn(C)c3ccccc23)cc1`, with 11%. Turning to `CCc1nnc(NC(=O)C2CC(=O)N(c3ccc4c(c3)OCCO4)C2)s1` (stereo not drawn), the “hERG current change (%, negative = inhibition) at 1uM” value is 7.52%. Consider `Cc1ccc2c(c1)NC(=O)C(CC(=O)Nc1ccc(CN3CCC(C)CC3)cc1)O2` (stereo not drawn), for which the “hERG current change (%, negative = inhibition) at 1uM” value was determined as 8.91%. Consider `Cc1ncc([N+](=O)[O-])n1CC(O)CCl` (stereo not drawn), for which the “hERG current change (%, negative = inhibition) at 1uM” value came out at 6.29%. Turning to `O=[N+]([O-])c1c(NCCO)cc(Sc2nc3ccccc3s2)c2nonc12`, the “hERG current change (%, negative = inhibition) at 1uM” value worked out at 21.7%. For `CCCCN1C(N)=NC[C@@H]1CCCCN`, the “hERG current change (%, negative = inhibition) at 1uM” value is 15.5%. In the case of `Cc1noc(C)c1C(=O)Nc1nc2ccc(S(C)(=O)=O)cc2s1`, the “hERG current change (%, negative = inhibition) at 1uM” value came out at 11.4%. Then `COC(=O)c1ccc(C2c3[nH]c4ccccc4c3C[C@H]3C(=O)N(C)CC(=O)N23)cc1` (stereo partly drawn), with 12.1%.

Consider `Cc1cccc(-n2cc3c(=O)n(C)c(=O)n(C)c3c2)c1`, for which the “hERG current change (%, negative = inhibition) at 1uM” value came out at 12.4%.

As for `CSc1ncccc1C(=O)Nc1ccc2nc(C)sc2c1`, the “hERG current change (%, negative = inhibition) at 1uM” value is 6.94%.
